# Experimental data as given in patent publication US20100240080.
# T1: Abl 1 substrate, SEQ ID NO: 3 (EAEAIYAAPGDK), modified with 7-hydroxycoumarin and 5-FAM
# T1 chain: EAEAIYAAPGDK
# Target: T1, Abl 1 substrate, SEQ ID NO: 3 …
protein,measurement,value
Abl 1 kinase (protein) MLEICLKLVGCKSKKGLSSSSSCYLEEALQRPVASDFEPQGLSEAARWNSKENLLAGPSE[about 60 residues not given here]LEKHSWYHGPVSRNAAEYLLSSGINGSFLVRESESSPGQRSISLRYEGRVYHYRINTASDGKLYVSSESRFNTLAELVHHHSTVADGLITTLHYPAPKRNKPTVYGVSPNYDKWEMERTDITMKHKLGGGQYGEVYEGVWKKYSLTVAVKTLKEDTMEVEEFLKEAAVMKEIKHPNLVQLLGVCTREPPFYIITEFMTYGNLLDYLRECNRQEVNAVVLLYMATQISSAMEYLEKKNFIHRDLAARNCLVGENHLVKVADFGLSRLMTGDTYTAHAGAKFPIKWTAPESLAYNKFSIKSDVWAFGVLLWEIATYGMSPYPGIDLSQVYELLEKDYRMERPEGCPEKVYELMRACWQWNPSDRPSFAEIHQAFETMFQESSISDEVEKELGKQGVRGAVSTLLQAPELPTKTRTSRRAAEHRDTTDVPEMPHSKGQGESDPLDHEPAVSPLLPRKERGPPEGGLNEDERLLPKDKKTNLFSALIKKKKKTAPTPPKRSSSFREMDGQPERRGAGEEEGRDISNGALAFTPLDTADPAKSPKPSNGAGVPNGALRESGGSGFRSPHLWKKSSTLTSSRLATGEEEGGGSSSKRFLRSCSASCVPHGAKDTEWRSVTLPRDLQSTGRQFDSSTFGGHKSEKPALPRKRAGENRSDQVTRGTVTPPPRLVKKNEEAADEVFKDIMESSPGSSPPNLTPKPLRRQVTVAPASGLPHKEEAGKGSALGTPAAAEPVTPTSKAGSGAPGGTSKGPAEESRVRRHKHSSESPGRDKGKLSRLKPAPPPPPAASAGKAGGKPSQSPSQEAAGEAVLGAKTKATSLVDAVNSDAAKPSQPGEGLKKPVLPATPKPQSAKPSGTPISPAPVPSTLPSASSALAGDQPSSTAFIPLISTRVSLRKTRQPPERIASGAITKGVVLDSTEALCLAISRNSEQMASHSAVLEAGKNLYTFCVSYVDSIQQMRNKFAFREAINKLENNLRELQICPATAGSGPAATQDFSKLLSSVKEISDIVQR,% Phosphorylation at 0.50 ng Abl 1 kinase per well,10%
same,% Phosphorylation at 0.75 ng Abl 1 kinase per well,15%
same,% Phosphorylation at 1.00 ng Abl 1 kinase per well,23%
same,% Phosphorylation at 1.30 ng Abl 1 kinase per well,30%
same,% Phosphorylation at 1.50 ng Abl 1 kinase per well,35%
same,% Phosphorylation at 2.00 ng Abl 1 kinase per well,46%
same,% Phosphorylation at 2.50 ng Abl 1 kinase per well,53%
same,% Phosphorylation at 3.00 ng Abl 1 kinase per well,61%
same,% Phosphorylation at 3.50 ng Abl 1 kinase per well,79%
